Measurements as given in patent US20210388118A1 (ZHEJIANG SHIMAI PHARMACEUTICAL, published 2021).

T1: recombinant cynomolgus CD3 (cynomolgus, UniProt Q95LI5 22-117)
T1 construct: Bought protein; subunit make-up not described; also called cCD3
T1 sequence (looked up): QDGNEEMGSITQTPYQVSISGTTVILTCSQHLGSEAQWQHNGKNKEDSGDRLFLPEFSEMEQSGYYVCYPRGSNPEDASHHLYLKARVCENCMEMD


What was measured:
[1] = molecular target: T2, human EGFR on cells (HCT116, A549, A431, HT29) (human, UniProt P00533); experiment: cell-based or functional assay
[2] = molecular target: T2, human EGFR on cells (HCT116, A549, …); experiment: flow cytometry on HCT116 cells, 2 µg/mL
recombinant human CD3 = molecular target: T3, recombinant human CD3 (human, UniProt P07766 23-126); experiment: ELISA, recombinant hCD3 coated
T3 construct: Bought protein; subunit make-up not described; also called hCD3
Experimental: (§1) ELISA was performed according to standard protocols. […] The plates were washed with PBS containing 0.05% Tween 20. […] The assay was developed at room temperature with TMB substrate (Sigma-Aldrich) and monitored at 450 nm with a microplate reader.

[3] = molecular target: T1, recombinant cynomolgus CD3; experiment: ELISA, recombinant cCD3 coated
Experimental: as §1

Chain of recombinant human CD3 (P07766 23-126): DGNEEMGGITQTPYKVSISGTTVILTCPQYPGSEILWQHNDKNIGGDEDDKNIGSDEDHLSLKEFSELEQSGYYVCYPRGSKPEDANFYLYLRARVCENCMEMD

Binder | killing of HT29 cells (luciferase) with human PBMC, EC50 [1] [nM] | binding result [2] | other results
iBiTE (I-shaped bispecific T cell engager, EGFR×CD3) (bispecific antibody, Two-chain heterodimer; also called i-shaped BiTE) heavy: EVQLVETGGGVVQPGRSLRLSCAASGFTFSSYAMHWVRQAPGKGLEWVAVISYDGSNKYYADSVKGRFTISRDNSKNTLYLQMNSLRAEDTAVYYCARGYVARGDFDYWGQGTLVTVSSGGGGSGGGGSGGGGSDVVMTQSPSTLSASVGDRVTITCRASQSMSRWLAWYQQKPGKGPKLLIYATSTLQSGVPSRFSGSGSGTEFTLTISSLQPEDFATYYCQQLDSFPFSFTFGPGTKVDLKGGGSSGGGGSGGGGSQVQLVQSGGGVVQPGRSLRLSCKASGYTFTRYTMHWVRQAPGKGLEWIGYINPSRGYTNYNQKVKDRFTISTDKSKSTAFLQMDSLRPEDTAVYYCARYYDDHYSLDYWGQGTTLTVSSASTKGPSVFPLAPSSKSTSGGTAALGCLVKDYFPEPVTVSWNSGALTSGVHTFPAVLQSSGLYSLSSVVTVPSSSLGTQTYICNVNHKPSNTKVDKKVEPKS[… human IgG1 Fc with T366L Y407H (EU numbers) …] light: DIQMTQSPSSLSASVGDRVTITCSASSSVSYMNWYQQTPGKAPKRWIYDTSKLASGVPSRFSGSGSGTDYTFTISSLQPEDIATYYCQQWSSNPFTFGQGTKLQITRTVAAPSVFIFPPSDEQLKSGTASVVCLLNNFYPREAKVQWKVDNALQSGNSQESVTEQDSKDSTYSLSSTLTLSKADYEKHKVYACEVTHQGLSSPVTKSFNRGE[… human IgG1 Fc with T366L Y407H (EU numbers) …] | ~0.006 |  | T cell activation (Promega bioassay, Jurkat NFAT-Luc2) with A431 cells, EC50 [1]: ~0.08 nM
proBiTE-12 (protease cleavable bispecific T cell engager, EGFR×CD3, dual cleavable linker) (bispecific antibody) heavy: EVQLVETGGGVVQPGRSLRLSCAASGFTFSSYAMHWVRQAPGKGLEWVAVISYDGSNKYYADSVKGRFTISRDNSKNTLYLQMNSLRAEDTAVYYCARGYVARGDFDYWGQGTLVTVSSGGGSSGGGGSGGGGSQVQLVQSGGGVVQPGRSLRLSCKASGYTFTRYTMHWVRQAPGKGLEWIGYINPSRGYTNYNQKVKDRFTISTDKSKSTAFLQMDSLRPEDTAVYYCARYYDDHYSLDYWGQGTTLTVSSASTKGPSVFPLAPSSKSTSGGTAALGCLVKDYFPEPVTVSWNSGALTSGVHTFPAVLQSSGLYSLSSVVTVPSSSLGTQTYICNVNHKPSNTKVDKKVEPKS[… human IgG1 Fc with T366L Y407H (EU numbers) …] light: DVVMTQSPSTLSASVGDRVTITCRASQSMSRWLAWYQQKPGKGPKLLIYATSTLQSGVPSRFSGSGSGTEFTLTISSLQPEDFATYYCQQLDSFPFSFTFGPGTKVDLKGGGGSLSGRSDNHGPLGLARKDIQMTQSPSSLSASVGDRVTITCSASSSVSYMNWYQQTPGKAPKRWIYDTSKLASGVPSRFSGSGSGTDYTFTISSLQPEDIATYYCQQWSSNPFTFGQGTKLQITRTVAAPSVFIFPPSDEQLKSGTASVVCLLNNFYPREAKVQWKVDNALQSGNSQESVTEQDSKDSTYSLSSTLTLSKADYEKHKVYACEVTHQGLSSPVTKSFNRGE[… human IgG1 Fc with T366L Y407H (EU numbers) …] | ~0.006 |  | 
proBiTE-1s2 (bispecific antibody, Variant of proBiTE-1, not sensitive to uPA) heavy: EVQLVETGGGVVQPGRSLRLSCAASGFTFSSYAMHWVRQAPGKGLEWVAVISYDGSNKYYADSVKGRFTISRDNSKNTLYLQMNSLRAEDTAVYYCARGYVARGDFDYWGQGTLVTVSSGGGSSGGGGSGGGGSQVQLVQSGGGVVQPGRSLRLSCKASGYTFTRYTMHWVRQAPGKGLEWIGYINPSRGYTNYNQKVKDRFTISTDKSKSTAFLQMDSLRPEDTAVYYCARYYDDHYSLDYWGQGTTLTVSSASTKGPSVFPLAPSSKSTSGGTAALGCLVKDYFPEPVTVSWNSGALTSGVHTFPAVLQSSGLYSLSSVVTVPSSSLGTQTYICNVNHKPSNTKVDKKVEPKS[… human IgG1 Fc with T366L Y407H (EU numbers) …] light: DVVMTQSPSTLSASVGDRVTITCRASQSMSRWLAWYQQKPGKGPKLLIYATSTLQSGVPSRFSGSGSGTEFTLTISSLQPEDFATYYCQQLDSFPFSFTFGPGTKVDLKGSGGSRSDNHGGGGSDIQMTQSPSSLSASVGDRVTITCSASSSVSYMNWYQQTPGKAPKRWIYDTSKLASGVPSRFSGSGSGTDYTFTISSLQPEDIATYYCQQWSSNPFTFGQGTKLQITRTVAAPSVFIFPPSDEQLKSGTASVVCLLNNFYPREAKVQWKVDNALQSGNSQESVTEQDSKDSTYSLSSTLTLSKADYEKHKVYACEVTHQGLSSPVTKSFNRGE[… human IgG1 Fc with T366L Y407H (EU numbers) …] |  | binds | 
HBiTE (H-shaped bispecific T cell engager, EGFR×CD3, non-cleavable linkers) (bispecific antibody, also called H-shaped BiTE) heavy: EVQLVETGGGVVQPGRSLRLSCAASGFTFSSYAMHWVRQAPGKGLEWVAVISYDGSNKYYADSVKGRFTISRDNSKNTLYLQMNSLRAEDTAVYYCARGYVARGDFDYWGQGTLVTVSSGGGSSGGGGSGGGGSQVQLVQSGGGVVQPGRSLRLSCKASGYTFTRYTMHWVRQAPGKGLEWIGYINPSRGYTNYNQKVKDRFTISTDKSKSTAFLQMDSLRPEDTAVYYCARYYDDHYSLDYWGQGTTLTVSSASTKGPSVFPLAPSSKSTSGGTAALGCLVKDYFPEPVTVSWNSGALTSGVHTFPAVLQSSGLYSLSSVVTVPSSSLGTQTYICNVNHKPSNTKVDKKVEPKS[… human IgG1 Fc with T366L Y407H (EU numbers) …] light: DVVMTQSPSTLSASVGDRVTITCRASQSMSRWLAWYQQKPGKGPKLLIYATSTLQSGVPSRFSGSGSGTEFTLTISSLQPEDFATYYCQQLDSFPFSFTFGPGTKVDLKGGGGSGGGGSGGGGSDIQMTQSPSSLSASVGDRVTITCSASSSVSYMNWYQQTPGKAPKRWIYDTSKLASGVPSRFSGSGSGTDYTFTISSLQPEDIATYYCQQWSSNPFTFGQGTKLQITRTVAAPSVFIFPPSDEQLKSGTASVVCLLNNFYPREAKVQWKVDNALQSGNSQESVTEQDSKDSTYSLSSTLTLSKADYEKHKVYACEVTHQGLSSPVTKSFNRGE[… human IgG1 Fc with T366L Y407H (EU numbers) …] | 2 |  | killing of HT29 cells, fold less potent than iBiTE [1]: ~300 fold
proBiTE-1s (bispecific antibody, Variant of proBiTE-1; also called proBiTE-ls) heavy: EVQLVETGGGVVQPGRSLRLSCAASGFTFSSYAMHWVRQAPGKGLEWVAVISYDGSNKYYADSVKGRFTISRDNSKNTLYLQMNSLRAEDTAVYYCARGYVARGDFDYWGQGTLVTVSSGGGSSGGGGSGGGGSQVQLVQSGGGVVQPGRSLRLSCKASGYTFTRYTMHWVRQAPGKGLEWIGYINPSRGYTNYNQKVKDRFTISTDKSKSTAFLQMDSLRPEDTAVYYCARYYDDHYSLDYWGQGTTLTVSSASTKGPSVFPLAPSSKSTSGGTAALGCLVKDYFPEPVTVSWNSGALTSGVHTFPAVLQSSGLYSLSSVVTVPSSSLGTQTYICNVNHKPSNTKVDKKVEPKS[… human IgG1 Fc with T366L Y407H (EU numbers) …] light: DVVMTQSPSTLSASVGDRVTITCRASQSMSRWLAWYQQKPGKGPKLLIYATSTLQSGVPSRFSGSGSGTEFTLTISSLQPEDFATYYCQQLDSFPFSFTFGPGTKVDLKGSLSGRSDNHGGGGSDIQMTQSPSSLSASVGDRVTITCSASSSVSYMNWYQQTPGKAPKRWIYDTSKLASGVPSRFSGSGSGTDYTFTISSLQPEDIATYYCQQWSSNPFTFGQGTKLQITRTVAAPSVFIFPPSDEQLKSGTASVVCLLNNFYPREAKVQWKVDNALQSGNSQESVTEQDSKDSTYSLSSTLTLSKADYEKHKVYACEVTHQGLSSPVTKSFNRGE[… human IgG1 Fc with T366L Y407H (EU numbers) …] |  | binds | 
proBiTE-1s1 (bispecific antibody, Variant of proBiTE-1) heavy: EVQLVETGGGVVQPGRSLRLSCAASGFTFSSYAMHWVRQAPGKGLEWVAVISYDGSNKYYADSVKGRFTISRDNSKNTLYLQMNSLRAEDTAVYYCARGYVARGDFDYWGQGTLVTVSSGGGSSGGGGSGGGGSQVQLVQSGGGVVQPGRSLRLSCKASGYTFTRYTMHWVRQAPGKGLEWIGYINPSRGYTNYNQKVKDRFTISTDKSKSTAFLQMDSLRPEDTAVYYCARYYDDHYSLDYWGQGTTLTVSSASTKGPSVFPLAPSSKSTSGGTAALGCLVKDYFPEPVTVSWNSGALTSGVHTFPAVLQSSGLYSLSSVVTVPSSSLGTQTYICNVNHKPSNTKVDKKVEPKS[… human IgG1 Fc with T366L Y407H (EU numbers) …] light: DVVMTQSPSTLSASVGDRVTITCRASQSMSRWLAWYQQKPGKGPKLLIYATSTLQSGVPSRFSGSGSGTEFTLTISSLQPEDFATYYCQQLDSFPFSFTFGPGTKVDLKGSGSGRSDNHGGGGSDIQMTQSPSSLSASVGDRVTITCSASSSVSYMNWYQQTPGKAPKRWIYDTSKLASGVPSRFSGSGSGTDYTFTISSLQPEDIATYYCQQWSSNPFTFGQGTKLQITRTVAAPSVFIFPPSDEQLKSGTASVVCLLNNFYPREAKVQWKVDNALQSGNSQESVTEQDSKDSTYSLSSTLTLSKADYEKHKVYACEVTHQGLSSPVTKSFNRGE[… human IgG1 Fc with T366L Y407H (EU numbers) …] |  | binds | 
proBiTE-1s1sp (EGFR×CD3, SMET5.2 Fv on hSP34 Fab-mFc7.2, cleavable linker) (bispecific antibody, Biotinylated in the ELISA per paragraph 229; sites not stated.) heavy: EVQLVETGGGVVQPGRSLRLSCAASGFTFSSYAMHWVRQAPGKGLEWVAVISYDGSNKYYADSVKGRFTISRDNSKNTLYLQMNSLRAEDTAVYYCARGYVARGDFDYWGQGTLVTVSSGGGSSGGGGSGGGGSEVQLVESGGGLVQPGGSLRLSCAASGFTFNTYAMNWVRQAPGKGLEWVARIRSKYNNYATYYADSVKGRFTISRDDSKNTLYLQMNSLRAEDTAVYYCVRHGNFGNSYVSYFAYWGQGTTVTVSSASTKGPSVFPLAPSSKSTSGGTAALGCLVKDYFPEPVTVSWNSGALTSGVHTFPAVLQSSGLYSLSSVVTVPSSSLGTQTYICNVNHKPSNTKVDKKVEPKS[… human IgG1 Fc with T366L Y407H (EU numbers) …] light: DVVMTQSPSTLSASVGDRVTITCRASQSMSRWLAWYQQKPGKGPKLLIYATSTLQSGVPSRFSGSGSGTEFTLTISSLQPEDFATYYCQQLDSFPFSFTFGPGTKVDLKGSGSGRSDNHGGGGSEIVVTQSPATLSVSPGERATLSCRSSTGAVTTSNYANWVQQKPGQAPRGLIGGANKRAPGVPARFSGSLSGDEATLTISSLQSEDFAVYYCALWYSNLWVFGQGTKLEIKRTVAAPSVFIFPPSDEQLKSGTASVVCLLNNFYPREAKVQWKVDNALQSGNSQESVTEQDSKDSTYSLSSTLTLSKADYEKHKVYACEVTHQGLSSPVTKSFNRGE[… human IgG1 Fc with T366L Y407H (EU numbers) …] |  |  | EC50 (recombinant human CD3): 1.9 nM; EC50 [3]: 2.4 nM
